In ChEMBL document CHEMBL4888484, “Replenishing the malaria drug discovery pipeline: Screening and hit evaluation of the MMV Hit Generation Library 1 (HGL1) against asexual blood stage Plasmodium falciparum ,using a nano luciferase reporter read-out” (2022):
Screen size: about 150,000 compounds; about 540 (0.36%) showed an effect of 50% or more. The list shows a part of the results.

System: Plasmodium falciparum
Assay: Primary screen in NF54 nanoGlo assay, in single point, at 2uM, 72h; a lower Z score goes with more inhibition
Format: functional, Erythrocyte
Conditions: timepoint 72 hour

**Q.** Which results are given for `COC(=O)c1ccc(N2CC(C)OC(C3CC3)C2)c(C#N)n1` (stereo not drawn)?
**A.** % Inhibition: -10%; Z score: 1.09

**Q.** How did the “% Inhibition” value turn out when `COc1cc(OC)cc(S(=O)(=O)N[C@H]2CCCC[C@@H]2O)c1` was run?
**A.** Its value is -3%.

**Q.** What about the Z score of the same compound?
**A.** The Z score was 0.32.

**Q.** `CC(NC(c1ccc(Cl)cc1)C1CC1C)c1ccc(F)cn1` (stereo not drawn) was tested. Which “% Inhibition” value did it give?
**A.** The value was -2%.

**Q.** And the Z score?
**A.** Its Z score is 0.31.

**Q.** With `Cc1ccc(-c2c[n+](CC(=O)c3ccccc3)c(N)n2C)cc1C` as the compound, how does the “% Inhibition” value read?
**A.** The value was -6%.

**Q.** And the Z score?
**A.** The Z score was 1.07.

**Q.** Which results are given for `CCN(C)C1(CNc2nccc(NC)n2)CCCCC1`?
**A.** % Inhibition: 2%; Z score: -0.23

**Q.** `C[C@@H](C(=O)Nc1ccccc1)N1CCN(Cc2ccccn2)CC1` was tested. Which “% Inhibition” value did it give?
**A.** The value was 2%.

**Q.** And the Z score?
**A.** Its Z score is -0.22.

**Q.** `Cc1nc(C(=O)Nc2cccnc2)cs1` was tested. Which “% Inhibition” value did it give?
**A.** Its value is 4%.

**Q.** And the Z score?
**A.** The Z score was -0.78.

**Q.** How did the “% Inhibition” value turn out when `O=C(Nc1ccc(F)c(-c2nnc(-c3ccccc3)o2)c1)Nc1ccc(F)cc1F` was run?
**A.** The value was -5%.

**Q.** What about the Z score of the same compound?
**A.** The Z score was 0.72.

**Q.** What does the source list for `CS(=O)(=O)NCCn1ccc(C(F)(F)F)n1`?
**A.** % Inhibition: -14%; Z score: 1.73

**Q.** `CC(C)CN1C[C@H](CNC(=O)c2n[nH]c3c2CCc2ccccc2-3)OCC1=O` was tested. Which “% Inhibition” value did it give?
**A.** Its value is 3%.

**Q.** What about the Z score of the same compound?
**A.** Its Z score is -0.39.

**Q.** For `Cn1nnc2c(C(=O)Nc3nccs3)ccnc21`, which “% Inhibition” value is on record?
**A.** Its value is -9%.

**Q.** What about the Z score of the same compound?
**A.** Its Z score is 1.55.

**Q.** Which “% Inhibition” value does the source give for `Cc1ccc(S(=O)(=O)[C@@H](CNC(=O)c2ccco2)c2cccnc2)cc1` here?
**A.** The value was -12%.

**Q.** What about the Z score of the same compound?
**A.** Its Z score is 1.8.

**Q.** Which results are given for `COCCCCNC(=O)N1CCC[C@H]1c1ccc2c(c1)OCCO2`?
**A.** % Inhibition: 6%; Z score: -0.91

**Q.** Which “% Inhibition” value does the source give for `CN1CCCC2(CCN(C(=O)c3ccncn3)CC2)[C@H]1C(=O)N1CCCC1` here?
**A.** Its value is -1%.

**Q.** What about the Z score of the same compound?
**A.** The Z score was 0.2.

**Q.** What does the source list for `Cc1ccc(CC(=O)Nc2nnn(Cc3ccccc3F)c2C)cn1`?
**A.** % Inhibition: -18%; Z score: 1.88

**Q.** How did the “% Inhibition” value turn out when `Cc1ccccc1C1=NO[C@@H](CN(Cc2ccc(F)cc2)C(=O)NC(C)(C)C)C1` was run?
**A.** The value was -16%.

**Q.** And the Z score?
**A.** Its Z score is 1.61.

**Q.** Which results are given for `COCCN1CCC[C@H]1c1nc(C2CN(S(=O)(=O)c3cccc(OC)c3)C2)no1`?
**A.** % Inhibition: 11%; Z score: -1.33

**Q.** How did the “% Inhibition” value turn out when `O=C1C[C@H](c2c(F)cccc2F)c2ncn(-c3cccnc3)c2N1` was run?
**A.** The value was 6%.

**Q.** And the Z score?
**A.** Its Z score is -0.81.

**Q.** Which “% Inhibition” value does the source give for `O=C(c1ccccc1Cl)N1CCN(S(=O)(=O)C2CC2)CC1` here?
**A.** Its value is -8%.

**Q.** What about the Z score of the same compound?
**A.** The Z score was 1.12.

**Q.** Which “% Inhibition” value does the source give for `Cc1cc(N2CCOC[C@@H]2C)n2ncnc2n1` here?
**A.** The value was -6%.

**Q.** And the Z score?
**A.** Its Z score is 0.76.

**Q.** Which results are given for `Cc1ccc(N(C(=O)c2cc(C3CC3)no2)C2CCCCC2)nc1`?
**A.** % Inhibition: -12%; Z score: 1.26

**Q.** For `O=C(NCCc1ccccc1)[C@@H]1CCN1C(=O)c1ccccc1`, which “% Inhibition” value is on record?
**A.** Its value is -32%.

**Q.** And the Z score?
**A.** The Z score was 3.76.

**Q.** `CCCCc1nc(N2CCN(C(=O)COC)CC2)c2c(-c3ccc4ccccc4c3)noc2n1` was tested. Which “% Inhibition” value did it give?
**A.** The value was -1%.

**Q.** What about the Z score of the same compound?
**A.** The Z score was 0.06.

**Q.** Which results are given for `Cc1cc(=O)c(C(=O)Nc2cccc(-c3csc(C)n3)c2)c[nH]1`?
**A.** % Inhibition: -13%; Z score: 1.11
